{"source": "patent US10590178B2", "about": "(priority 2014, dated 2020)", "key": {"[1]": {"tested_on": "C. albicans (strain SC5314)", "experiment": "Peptide-pulsed DC vaccination of mice, then lethal i.v. C. albicans challenge (survival, kidney CFUs)", "procedure": "Survival times were evaluated statistically by Kaplan-Meier estimator (GraphPad Prism, version 4). All analyses included five mice per group (n=5). A two-tailed t test was used."}, "[2]": {"tested_on": "C. albicans cells (strain 3153A)", "type": "in vivo, Candida albicans", "settings": "lethal dose C. albicans 3153A; compared to controls and other groups", "procedure": "Fba-8MAP and Met6-8MAP peptides were administered as a mixture using alum (aluminum hydroxide gel, Sigma) as adjuvant. Mice were immunized by s.c. injection with 100 μl of 2.5 μg of either Fba-8MAP conjugate or Met6-8MAP conjugate with 50 μg alum on days 1, 21 and 42. Sera from groups of mice given DPBS buffer only, or adjuvant only were used as negative controls.\nA two-tailed t test was used.\nThe Fba-8MAP conjugate or the Met6-8MAP conjugate was administered as a mixture with an alum adjuvant (aluminum hydroxide gel, Sigma). Mice were immunized by subcutaneous (s.c.) injection of 0.1 ml of DPBS buffer containing either 2.5 μg of Fba-8MAP or 2.5 μg of Met6-8MAP, mixed with 50 μg alum, on days 1, 21 and 42. Negative control groups of mice were given the same volume of DPBS buffer, or the same volume of DPBS buffer with alum adjuvant. Groups immunized with peptide-pulsed DCs were used as positive controls."}}, "data": [{"sequence": "PRIGGQRELKKITE (Met6 peptide) [14-mer peptide from C. albicans cell wall protein Met6]", "values": [{"measurement": "protection / survival time compared to control mice", "setting": "[1]; lethal dose C. albicans SC5314 i.v., listed as Met6 peptide", "result": "significantly prolonged survival time"}, {"measurement": "kidney CFU levels", "setting": "[2]", "result": "lowest kidney CFU levels"}]}, {"sequence": "YGKDVKDLFDYAQE (Fba peptide) [14-mer peptide from C. albicans cell wall protein fructose-bisphosphate aldolase]", "values": [{"measurement": "fungal CFUs in kidneys compared to control animals", "setting": "[1]; C. albicans SC5314", "result": "greatly reduced or even non-detectable"}, {"measurement": "kidney CFU levels", "setting": "[2]", "result": "lowest kidney CFU levels"}]}]}
